No constants are given. Whether binding was seen depends on the method and setting. In cells and extracts the contact can be indirect. Some entries that bind do so weakly or less than the wild type. For some of these results: Tags and fused reporters may be left off the sequences shown. One block for each substance: values may come before it.
What was measured:
[1] = biological target: YFP–VPS37C (UniProt A5D8V6); test: co-IP; GFP-trap magnetic agarose on lysates of HeLa cells stably expressing a YFP-tagged bait (YFP–TSG101 in HeLa^WT or HeLa^ΔUMAD1; YFP–UMAD1 in HeLa^ΔUMAD1), >12 h at 4°C; western blot for endogenous proteins; unfused YFP as control
[2] = biological target: YFP–VPS37A (UniProt Q8NEZ2); test: as above
[3] = biological target: YFP–UMAD1 (human) (UniProt C9J7I0); test: as above
[4] = biological target: HA–VPS37C (UniProt A5D8V6); test: pull-down; 293T cells co-transfected with GST–TSG101, Myc–VPS28, HA–UMAD1 (wild type or mutant) and one HA-tagged VPS37 subunit; lysate on glutathione–Sepharose beads 3 h at 4°C (50 mM Tris-HCl pH 7.4, 150 mM NaCl, 5 mM EDTA, 5% glycerol, Triton X-100); anti-HA blot; unfused GST as control
[5] = biological target: GST–TSG101 (UniProt Q99816); test: as above
[6] = biological target: T1, HA–VPS37D (UniProt Q86XT2); test: as above
T1 sequence: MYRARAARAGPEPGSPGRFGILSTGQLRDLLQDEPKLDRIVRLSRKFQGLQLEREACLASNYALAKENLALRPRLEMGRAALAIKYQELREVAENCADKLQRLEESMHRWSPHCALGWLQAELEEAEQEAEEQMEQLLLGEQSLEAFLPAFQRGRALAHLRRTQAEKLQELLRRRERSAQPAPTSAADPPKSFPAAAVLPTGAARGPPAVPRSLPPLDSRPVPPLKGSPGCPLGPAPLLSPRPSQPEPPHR

By UniProt entry, the sequences of proteins in these tests, tags left out.
UniProt A5D8V6: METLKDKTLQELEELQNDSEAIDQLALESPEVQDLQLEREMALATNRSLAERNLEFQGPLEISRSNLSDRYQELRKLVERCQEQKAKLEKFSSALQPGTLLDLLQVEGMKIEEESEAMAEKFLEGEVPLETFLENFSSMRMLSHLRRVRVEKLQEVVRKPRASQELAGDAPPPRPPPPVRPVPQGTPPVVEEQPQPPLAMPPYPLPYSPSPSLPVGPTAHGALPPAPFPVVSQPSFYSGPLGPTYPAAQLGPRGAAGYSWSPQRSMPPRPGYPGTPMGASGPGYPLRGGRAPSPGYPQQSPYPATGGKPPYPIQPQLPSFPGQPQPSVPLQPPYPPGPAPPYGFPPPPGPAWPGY
UniProt Q8NEZ2: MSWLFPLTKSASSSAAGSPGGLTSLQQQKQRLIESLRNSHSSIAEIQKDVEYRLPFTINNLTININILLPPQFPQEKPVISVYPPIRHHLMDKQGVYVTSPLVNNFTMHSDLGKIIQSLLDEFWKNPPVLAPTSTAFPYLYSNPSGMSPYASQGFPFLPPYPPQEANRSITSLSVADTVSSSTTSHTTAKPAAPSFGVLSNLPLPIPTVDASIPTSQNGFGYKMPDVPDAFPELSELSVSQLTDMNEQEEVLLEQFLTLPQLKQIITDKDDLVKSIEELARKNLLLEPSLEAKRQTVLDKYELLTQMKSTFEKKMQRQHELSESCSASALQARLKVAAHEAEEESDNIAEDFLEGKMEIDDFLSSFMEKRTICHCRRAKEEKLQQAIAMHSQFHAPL
UniProt C9J7I0: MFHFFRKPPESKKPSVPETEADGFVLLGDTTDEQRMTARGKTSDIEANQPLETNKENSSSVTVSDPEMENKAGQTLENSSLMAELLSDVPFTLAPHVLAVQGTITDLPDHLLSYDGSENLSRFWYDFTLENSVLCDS

[7] = biological target: HA–VPS37B (UniProt Q9H9H4); test: as above
[8] = biological target: HA–VPS37A (UniProt Q8NEZ2); test: as above
[9] = biological target: YFP–TSG101 (UniProt Q99816); test: co-IP; GFP-trap magnetic agarose on lysates of HeLa cells stably expressing a YFP-tagged bait (YFP–TSG101 in HeLa^WT or HeLa^ΔUMAD1; YFP–UMAD1 in HeLa^ΔUMAD1), >12 h at 4°C; western blot for endogenous proteins; unfused YFP as control
[10] = biological target: YFP–VPS37B (UniProt Q9H9H4); test: as above

Substance: HA–UMAD1 (from UniProt C9J7I0 1-137)
binding [4]: binds
binding [5]: binds
binding [6]: binds weakly
binding [7]: binds
binding [8]: no binding

Substance: endogenous VPS37C (from UniProt A5D8V6 1-355)
binding [3]: binds

Substance: endogenous UMAD1 (from UniProt C9J7I0 1-137)
binding [1]: binds
binding [9]: binds
binding [10]: binds

Other lines, results leading:

binding [1]: binds
binding [2]: binds
binding [3]: binds
Substance: endogenous TSG101 (from UniProt Q99816 1-390)

binding [3]: no binding
Substance: endogenous VPS37A (from UniProt Q8NEZ2 1-397)

Source: PMC10445733
